Tested on: Ascaridia galli (intestinal roundworm of chicken), larval stage 3
Assay: In vitro assay Ascaridia galli L3, minimum effective concentration
Conditions: read-out: MEC against Ascaridia galli L3, minimum effective concentration, microscopic examination, 20 larvae per well
Text: In Vitro Assay: Ascaridia galli and Oesophagostumum dentatum
Ascaridia galli (intestinal roundworm of chicken), larval stage 3 (“L3”); and Oesophagostumum dentatum (nodular worm of swine), larval stages 3 and 4 (respectively “L3” and “L4”) where suspended in a nutrient medium and distributed to 96 well plates with 20 larvae per well. The wells were spiked DMSO solutions of the compounds with declining concentration.

| Compound | minimal effective concentration |
| --- | --- |
| CN1CCN(c2c(C(=O)N[C@H]3CCOc4ccccc43)cnc3c(-c4cccc(Cl)c4Cl)csc23)CC1 [Compound 17] | ≤ 50 µM |
| O=C(NC1COc2ccccc21)c1cnc2c(-c3cc(Cl)cc(Cl)c3)csc2c1N1CCOCC1 (stereo not drawn) [Compound 81] | ≤ 50 µM |
| Cc1sc2c(N(C)C)c(C(=O)Nc3cccc4ccccc34)cnc2c1-c1cccc(Cl)c1Cl [Compound 37] | ≤ 50 µM |
| O=C(N[C@H]1CCOc2ccccc21)c1cnc2c(-c3cc(F)cc(F)c3F)csc2c1NC1CC1 [Compound 88] | ≤ 50 µM |
| O=C(N[C@H]1CCOc2ccccc21)c1cnc2c(-c3cccc(F)c3F)csc2c1NC1CC1 [Compound 87] | ≤ 50 µM |

Target: Caenorhabditis elegans slo-1a (Caenorhabditis elegans, UniProt Q95V25)
UniProt Q95V25, sequence (Q95V25 whole entry): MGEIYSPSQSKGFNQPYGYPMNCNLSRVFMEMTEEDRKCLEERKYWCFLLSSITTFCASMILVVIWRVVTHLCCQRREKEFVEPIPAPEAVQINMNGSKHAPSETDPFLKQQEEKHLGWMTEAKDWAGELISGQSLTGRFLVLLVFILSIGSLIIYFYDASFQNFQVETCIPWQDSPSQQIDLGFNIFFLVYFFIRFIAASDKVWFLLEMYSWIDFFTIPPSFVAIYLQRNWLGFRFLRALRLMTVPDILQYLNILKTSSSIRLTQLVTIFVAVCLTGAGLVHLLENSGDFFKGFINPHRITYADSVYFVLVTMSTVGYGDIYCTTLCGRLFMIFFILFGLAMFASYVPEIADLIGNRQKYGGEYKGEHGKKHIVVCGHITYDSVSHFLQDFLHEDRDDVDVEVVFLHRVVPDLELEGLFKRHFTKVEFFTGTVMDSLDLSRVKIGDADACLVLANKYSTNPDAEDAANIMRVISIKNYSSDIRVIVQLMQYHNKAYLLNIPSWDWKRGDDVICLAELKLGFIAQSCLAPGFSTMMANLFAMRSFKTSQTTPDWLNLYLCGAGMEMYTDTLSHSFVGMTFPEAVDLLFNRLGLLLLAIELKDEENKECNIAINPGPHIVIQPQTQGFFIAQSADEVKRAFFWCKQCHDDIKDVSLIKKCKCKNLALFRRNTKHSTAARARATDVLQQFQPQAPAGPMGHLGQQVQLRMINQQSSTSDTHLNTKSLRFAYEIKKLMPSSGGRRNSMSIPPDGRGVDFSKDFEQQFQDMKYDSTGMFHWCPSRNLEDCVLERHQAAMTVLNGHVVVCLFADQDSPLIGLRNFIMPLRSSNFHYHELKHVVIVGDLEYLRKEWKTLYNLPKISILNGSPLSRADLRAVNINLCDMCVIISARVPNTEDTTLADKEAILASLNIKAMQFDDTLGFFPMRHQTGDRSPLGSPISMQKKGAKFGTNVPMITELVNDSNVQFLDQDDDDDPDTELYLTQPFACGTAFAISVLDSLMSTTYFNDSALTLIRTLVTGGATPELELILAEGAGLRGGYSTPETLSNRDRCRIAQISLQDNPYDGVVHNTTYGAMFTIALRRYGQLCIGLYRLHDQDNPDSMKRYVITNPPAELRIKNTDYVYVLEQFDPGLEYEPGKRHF
Assay: Agonistic activity at C. elegans Slo-1a, FLIPR membrane potential in CHO K1 cells
Conditions: EC50 value, CHO K1 cells stably transfected
Text: In Vitro Assay: Agonistic Activity at C. elegans Slo-1a
A CHO K1 cell line stably transfected with the Caenorhabditis elegans slo-1a (accession no Y51A2D.19a) was established.
The complete measurement takes 150 s.

| Compound | EC50 |
| --- | --- |
| Cc1sc2c(N3CC(F)C3)c(C(=O)N[C@H]3CCc4ccccc43)cnc2c1-c1cccc(Cl)c1Cl [Compound 63] | < 1000 nM |
| C[C@H](NC(=O)c1cnc2c(-c3cc(Cl)cc(Cl)c3)csc2c1N(C)C)c1ccccc1 [Compound 8] | < 10000 nM |
| O=C(N[C@H]1CCOc2ccccc21)c1cnc2c(-c3cccc(C(F)(F)F)c3)csc2c1N1CC(F)C1 [Compound 93] | < 10000 nM |
| Cc1sc2c(N(C)C)c(C(=O)N[C@H]3CCOc4ccccc43)cnc2c1-c1cccc(OC(F)(F)F)c1 [Compound 105] | < 1000 nM |
| Cc1sc2c(N3CCOCC3)c(C(=O)N[C@H]3CCOc4ccccc43)cnc2c1-c1cccc(OC(F)(F)F)c1 [Compound 109] | < 10000 nM |
| Cc1sc2c(N(C)C)c(C(=O)N[C@H]3CCOc4ccccc43)cnc2c1-c1cccc(C(F)(F)F)c1 [Compound 104] | < 1000 nM |
| O=C(N[C@H]1CCOc2ccccc21)c1cnc2c(-c3cc(Cl)cc(Cl)c3)csc2c1N1CCOCC1 [Compound 1] | < 1000 nM |
| CN(C)c1c(C(=O)N[C@H]2CCOc3ccccc32)cnc2c(-c3cc(F)cc(F)c3)csc12 [Compound 51] | < 10000 nM |
| Cc1sc2c(N3CC(F)(F)C3)c(C(=O)N[C@H]3CCc4ccccc43)cnc2c1-c1cccc(Cl)c1Cl [Compound 57] | < 1000 nM |
| CN(C)c1c(C(=O)N[C@H]2CCOc3ccccc32)cnc2c(-c3cccc(F)c3F)csc12 [Compound 46] | < 1000 nM |
| O=C(N[C@H]1CCOc2ccccc21)c1cnc2c(-c3cc(F)cc(F)c3)csc2c1N1CC(F)C1 [Compound 92] | < 10000 nM |
| Cc1sc2c(N3CCOCC3)c(C(=O)N[C@H]3CCOc4ccccc43)cnc2c1-c1cc(F)cc(F)c1F [Compound 106] | < 1000 nM |
| Cc1sc2c(N3CC(F)(F)C3)c(C(=O)N[C@H]3CCOc4ccccc43)cnc2c1-c1cccc(Cl)c1Cl [Compound 56] | < 1000 nM |
| Cc1sc2c(N3CCOCC3)c(C(=O)Nc3cccc4ccccc34)cnc2c1-c1cccc(Cl)c1Cl [Compound 74] | < 10000 nM |
| Cc1sc2c(N3CCOCC3)c(C(=O)N[C@H]3CCCc4ccccc43)cnc2c1-c1cccc(Cl)c1Cl [Compound 71] | < 1000 nM |
| Cc1sc2c(N(C)C)c(C(=O)N[C@H]3CCc4ccccc43)cnc2c1-c1cccc(Cl)c1Cl [Compound 34] | < 1000 nM |
| Cc1sc2c(N(C)C)c(C(=O)N[C@H]3CCOc4ccccc43)cnc2c1-c1cc(F)cc(F)c1 [Compound 103] | < 1000 nM |
| Cc1sc2c(N3CC(F)C3)c(C(=O)N[C@H]3CCOc4ccccc43)cnc2c1-c1cc(Cl)cc(Cl)c1 [Compound 65] | < 1000 nM |
| Cc1sc2c(N3CC(F)(F)C3)c(C(=O)N[C@H]3CCOc4ccccc43)cnc2c1-c1cc(Cl)cc(Cl)c1 [Compound 59] | < 1000 nM |
| Cc1sc2c(N3CC(F)(F)C3)c(C(=O)N[C@H]3CCCc4ccccc43)cnc2c1-c1cc(Cl)cc(Cl)c1 [Compound 58] | < 1000 nM |
| Cc1sc2c(N3CC(F)(F)C3)c(C(=O)N[C@H]3CCCc4ccccc43)cnc2c1-c1cccc(Cl)c1Cl [Compound 55] | < 1000 nM |

| Compound | EC50 |
| --- | --- |
| CN(C)c1c(C(=O)N[C@H]2CCc3ccccc32)cnc2c(-c3cc(Cl)cc(Cl)c3)csc12 [Compound 9] | < 1000 nM |
| O=C(N[C@H]1CCc2ccccc21)c1cnc2c(-c3cccc(Cl)c3Cl)csc2c1N1CC(F)(F)C1 [Compound 39] | < 1000 nM |
| Cc1sc2c(N3CCOCC3)c(C(=O)N[C@H]3CCCc4ccccc43)cnc2c1-c1cc(Cl)cc(Cl)c1 [Compound 67] | < 1000 nM |
| O=C(N[C@H]1CCCc2ccccc21)c1cnc2c(-c3cc(Cl)cc(Cl)c3)csc2c1N1CCOCC1 [Compound 32] | < 1000 nM |
| CN(C)c1c(C(=O)N[C@H]2CCOc3ccccc32)cnc2c(-c3cc(F)cc(F)c3F)csc12 [Compound 23] | < 1000 nM |
| Cc1sc2c(N3CCOCC3)c(C(=O)N[C@H]3CCc4ccccc43)cnc2c1-c1cc(F)cc(F)c1 [Compound 111] | < 1000 nM |
| CN(C)c1c(C(=O)N[C@H]2CCOc3ccccc32)cnc2c(-c3cc(Cl)cc(Cl)c3)csc12 [Compound 7] | < 1000 nM |
| CN(C)c1c(C(=O)N[C@H]2CCOc3ccccc32)cnc2c(-c3cccc(Cl)c3Cl)csc12 [Compound 10] | < 1000 nM |
| Cc1sc2c(N3CCOCC3)c(C(=O)N[C@H]3CCOc4ccccc43)cnc2c1-c1cccc(C(F)(F)F)c1 [Compound 108] | < 1000 nM |
| Cc1sc2c(N3CCOCC3)c(C(=O)N[C@H]3CCOc4ccccc43)cnc2c1-c1cc(Cl)cc(Cl)c1 [Compound 68] | < 1000 nM |
| Cc1sc2c(N3CCOCC3)c(C(=O)N[C@H]3CCc4ccccc43)cnc2c1-c1cccc(C(F)(F)F)c1 [Compound 112] | < 1000 nM |
| Cc1sc2c(N(C)C)c(C(=O)N[C@H]3CCOc4ccccc43)cnc2c1-c1cccc(Cl)c1Cl [Compound 36, (S)—N-(chroman-4-yl)-3-(2,3-dichlorophenyl)-7-dimethylamino-2-methylthieno[3,2-b]pyridine-6-carboxamide] | < 1000 nM |
| O=C(N[C@H]1CCc2ccccc21)c1cnc2c(-c3cc(Cl)cc(Cl)c3)csc2c1N1CCOCC1 [Compound 3] | < 1000 nM |
| Cc1sc2c(N3CCOCC3)c(C(=O)N[C@H]3CCOc4ccccc43)cnc2c1-c1cccc(Cl)c1Cl [Compound 72] | < 1000 nM |
| Cc1sc2c(N(C)C)c(C(=O)N[C@H]3CCOc4ccccc43)cnc2c1-c1cc(F)cc(F)c1F [Compound 102] | < 1000 nM |
| Cc1sc2c(N3CCOCC3)c(C(=O)N[C@H]3CCOc4ccccc43)cnc2c1-c1cc(F)cc(F)c1 [Compound 107] | < 1000 nM |
| O=C(N[C@H]1CCOc2ccccc21)c1cnc2c(-c3cccc(F)c3F)csc2c1N1CCC1 [Compound 85] | < 1000 nM |
| O=C(N[C@H]1CCc2ccccc21)c1cnc2c(-c3cccc(Cl)c3Cl)csc2c1N1CC(F)C1 [Compound 99] | < 1000 nM |
| Cc1cccc(-c2csc3c(N(C)C)c(C(=O)N[C@H]4CCOc5ccccc54)cnc23)c1C [Compound 75] | < 1000 nM |
| O=C(N[C@H]1CCOc2ccccc21)c1cnc2c(-c3cccc(Cl)c3Cl)csc2c1N1CC(F)(F)C1 [Compound 26] | < 1000 nM |
| O=C(N[C@H]1CCOc2ccccc21)c1cnc2c(-c3cccc(Cl)c3Cl)csc2c1N1CCOCC1 [Compound 4, (S)—N-(chroman-4-yl)-3-(2,3-dichlorophenyl)-7-morpholinothieno[3,2-b]pyridine-6-carboxamide] | < 1000 nM |

| Compound | EC50 |
| --- | --- |
| Cc1sc2c(N3CCOCC3)c(C(=O)N[C@H]3CCc4ccccc43)cnc2c1-c1cc(F)cc(F)c1F [Compound 110] | < 1000 nM |
| C[C@H](NC(=O)c1cnc2c(-c3cc(Cl)cc(Cl)c3)csc2c1N1CCOCC1)c1ccccc1 [Compound 2] | < 10000 nM |
| Cc1sc2c(N3CCOCC3)c(C(=O)N[C@H]3CCc4ccccc43)cnc2c1-c1cccc(Cl)c1Cl [Compound 73] | < 1000 nM |
| Cc1sc2c(N3CC(F)C3)c(C(=O)N[C@H]3CCc4ccccc43)cnc2c1-c1cc(Cl)cc(Cl)c1 [Compound 66] | < 1000 nM |
| O=C(N[C@H]1CCOc2ccccc21)c1cnc2c(-c3cccc(F)c3F)csc2c1N1CC(F)C1 [Compound 91] | < 1000 nM |
| O=C(N[C@H]1CCOc2ccccc21)c1cnc2c(-c3cccc(F)c3F)csc2c1N1CCOCC1 [Compound 24] | < 1000 nM |
| CN(C)c1c(C(=O)N[C@H]2CCc3ccccc32)cnc2c(-c3cccc(Cl)c3Cl)csc12 [Compound 12] | < 1000 nM |
| CN(C)c1c(C(=O)NC2COc3ccccc32)cnc2c(-c3cc(Cl)cc(Cl)c3)csc12 (stereo not drawn) [Compound 96] | < 10000 nM |
| Cc1sc2c(N(C)C)c(C(=O)N[C@H]3CCOc4ccccc43)cnc2c1-c1cc(Cl)cc(Cl)c1 [Compound 53] | < 1000 nM |
| CN(C)c1c(C(=O)N[C@H]2CCCc3ccccc32)cnc2c(-c3cc(Cl)cc(Cl)c3)csc12 [Compound 31] | < 1000 nM |
| O=C(N[C@H]1CCOc2ccccc21)c1cnc2c(-c3cccc(C(F)(F)F)c3)csc2c1N1CCC1 [Compound 90] | < 10000 nM |
| O=C(N[C@H]1CCOc2ccccc21)c1cnc2c(-c3cc(F)cc(F)c3F)csc2c1N1CCOCC1 [Compound 15] | < 10000 nM |
| O=C(NC1CCOc2ccccc21)c1cnc2c(-c3cccc(Cl)c3Cl)csc2c1N1CC(F)(F)C1 (stereo not drawn) [Compound 27] | < 1000 nM |
| O=C(N[C@H]1CCc2ccccc21)c1cnc2c(-c3cc(F)cc(F)c3F)csc2c1N1CC(F)(F)C1 [Compound 41] | < 10000 nM |
| CN(C)c1c(C(=O)NC2CCOc3ccccc32)cnc2c(-c3cccc(Cl)c3Cl)csc12 (stereo not drawn) [Compound 28] | < 1000 nM |
| Cc1sc2c(N3CC(F)C3)c(C(=O)N[C@H]3CCOc4ccccc43)cnc2c1-c1cccc(Cl)c1Cl [Compound 62] | < 1000 nM |
| Cc1sc2c(N(C)C)c(C(=O)N[C@H]3CCc4ccccc43)cnc2c1-c1cc(Cl)cc(Cl)c1 [Compound 33] | < 1000 nM |
| CN(C)c1c(C(=O)N[C@H]2CCCc3ccccc32)cnc2c(-c3cccc(Cl)c3Cl)csc12 [Compound 21] | < 1000 nM |
| Cc1sc2c(N3CCOCC3)c(C(=O)N[C@H]3CCc4ccccc43)cnc2c1-c1cccc(OC(F)(F)F)c1 [Compound 113] | < 1000 nM |
